In all, about 81,000 sequences were measured (“one-hybrid fitness for binding NBS DNA”: median about -0.1, highest 2% from about 0.36 on). Some of the results follow.
B1: Caulobacter ParB omega fusion; a variant is named by its letters at X, in order, B8GW30 (parent)
chain: MESVVVGEPGMSEGRRGLGRGLSALLGEVDAAPAQAPGEQLGGSREAPIEILQRNPDQPRRTFREEDLEDLSNSIREKGVLQPILVRPSPDTAGEYQIVAGERAWRAAQRAGLKTVPIMVRELDDLAVLEIGIIENVQRADLNVLEEALSYKVLMEKFERTQENIAQTIGKSXSHVANXMRLLXLPDEVQSYLVSGELTAXHARAIAAAADPVALAKQIIEGGLSVRETEALARKAPNLSAGKSKGGRPPRVKDTDTQALESDLSSVLGLDVSIDHRGSTGTLTITYATLEQLDDLCNRLTRGI

Variants of: B1
Experiment: one-hybrid fitness for binding NBS DNA (the Noc-binding site; scaled: cognate 1, non-cognate 0); higher = stronger binding
Settings: with NBS DNA site
In short: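 Pre- and post-selection plasmids were Illumina-sequenced, three replicate libraries were pooled, and any variant with under 10 reads was removed. The libraries were Caulobacter ParB with four specificity codons randomised, selected in E. coli USO through a HIS3 reporter whose site is 19 bp from the promoter. Cells grew 48 hours at 37°C on M9 without histidine, with 0.1 mM IPTG and 5 mM 3-AT. Fitness is the log change in variant-to-wild-type read ratio, rescaled against cognate and non-cognate.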

one-hybrid fitness for binding NBS DNA, 0.21:
RWHY

one-hybrid fitness for binding NBS DNA, 0.283:
QKKE

one-hybrid fitness for binding NBS DNA, 0.598:
QRNH

one-hybrid fitness for binding NBS DNA, 0.361:
RARC

one-hybrid fitness for binding NBS DNA, 0.476:
RSHR

one-hybrid fitness for binding NBS DNA, 0.724:
RTKT

one-hybrid fitness for binding NBS DNA, 0.296:
RMVT

one-hybrid fitness for binding NBS DNA, 0.526:
RSNR

one-hybrid fitness for binding NBS DNA, 0.435:
RHST

one-hybrid fitness for binding NBS DNA, 0.273:
RNSS

one-hybrid fitness for binding NBS DNA, 0.317:
QLSS

one-hybrid fitness for binding NBS DNA, 0.55:
RRGS

one-hybrid fitness for binding NBS DNA, 0.786:
RRRT

one-hybrid fitness for binding NBS DNA, 0.313:
RWNT

one-hybrid fitness for binding NBS DNA, 0.348:
RRCY

one-hybrid fitness for binding NBS DNA, 0.504:
QNKR

one-hybrid fitness for binding NBS DNA, 0.33:
QGRR

one-hybrid fitness for binding NBS DNA, 0.5:
QMLR

one-hybrid fitness for binding NBS DNA, ≤ 0.2:
PNSK
LFRT
LYKC
VPYF
ATEQ
ASRV
NPPS
SNGM
YELT
DCSA
IHWT
RMMD
QLIF
KATG
SRHD
NEDR
WDAM
QDCS
HEIS
WYQR
GVGE
FESS
NTHA
AEKA
LTWN
DTMA
PLVF
TSED
TWLN
RTAN
ENPT
HALK
ECYG
HKAV
SPIG
NDYL
QCNI
NNKV
VSGV
AHRE
GSKT
EAIR
PQMS
ARPG
NSIT
VRSL
RTYH
FNYT
FRPA
VRTY
VPSP
GLQI
KKYR
IRAA
PHPA
DAPF
GHKE
PCWV
TGYG
IKFI
DIAF
TGNF
NHIS
KWKS
KVAT
HSVT
MATF
NIFR
SLEL
TEDN
PWKC
PPTW
AEMW
SFLE
LMQR
VCRI
RIYF
PWKH
HTKN
PVII
NTHL
GVHC
ESQR
DRSD
KLVC
SVKR
VAIN
RLHG
AIVN
VWTM
NMFK
DALV
PSQS
FIHC
TCMV
PNWP
IGPE
THKH
MNGR
LCNI
GLTY
IPCR
PPSD
PIYW
GMRR
VWGF
YLMG
GSPK
SHNN
RDPC
QKYN
WPVW
RQII
QILG
QGTD
DERH
QHYC
MPKV
GTFT
PHRC
HYDS
ATHC
LCKC
RGSW
GFHT
QILV
FNKS
SYYY
TAGD
EVAF
MADY
HQWR
EMSI
AMDG
PEQW
DFQC
GPHA
SATI
AHRR
NYFR
TPCL
TQNY
RQAI
LEMC
MMSR
CAIG
KTMC
FAYC
WREL
SLLF
HLMT
DMSK
WRQA
PMSP
HSRH
RHQG
SPAT
ASKC
PSDI
FMAG
CGRY
LAVW
ETKC
EHLS
EISP
QVND
KRPC
TEVA
ACPV
PYIV
GMPR
GNRY
WSGT
ATNV
GHAF
SYWG
RCIC
PKTF
AYAW
TCVG
REIP
PARP
YRAA
KPWR
EQSC
TDLE
HSSH
CMYR
CIRR
LWVS
VVKF
YFAL
RMGM
ASEP
DHDF
PYGM
PLKQ
NNWT
CGKC
RDIH
QQLF
MLQM
GQGS
RPIT
QMVN
STRM
VMTM
LANF
DGTW
PQVQ
QQLW
GLKC
HAEG
GMRF
PSHN
CKLG
FPCG
VHVL
NTIR
STVD
PFPD
GIDT
SAML
NRIA
RDND
TWCT
QPEI
PATK
RDAT
CTCR
TNDG
KDHA
SLRH
IKPG
PAKA
LSEV
KYTQ
GSWR
MYLC
MTRP
VLVG
RVEC
KGPD
SSVR
IAHL
VANW
WDRA
WFKR
RWIY
FPGE
AGNA
CFSF
VSYG
CNTS
APTW
QNHD
EYRG
GSMP
QAYH
RWQE
RTTM
HLAD
EPEC
SFEC
HVCP
TKNF
KWYG
QMIV
IPPG
LLSF
GTIG
PKLW
YVTY
YIDA
ALKF
HSPD
GWSS
GPTY
VVSS
APRI
PTSS
RIHF
QVAI
CICK
KNGM
GPKH
YGRD
RDVG

Reference: a collection of fitness landscapes (doi:10.1016/j.celrep.2020.107928)
